Reference: PubChem BioAssay AID588579 (National Center for Advancing Translational Sciences (NCATS), 2011)
“And” between values parts separate entries of the source, which are not always exact repeats. Identical values can stand only once. In all, about 400,000 compounds went through this assay and about 2,200 (0.55%) were called active. The shares of active, inactive and inconclusive entries below differ from those in the screen. Calls come from the whole dose curve; as a rule, active = well fitted inhibition curve with a large enough effect; inconclusive = small, poorly fitted or top-dose-only effect, or another doubt; inactive = no such curve, though single readings can be large or run the other way. Where the call is inconclusive, the potency comes from a doubtful curve fit. More than one record can exist for a structure, and the calls need not agree.

molecular target: DNA polymerase kappa (Homo sapiens) (UniProt Q9UBT6); experiment: qHTS for Inhibitors of Polymerase Kappa; settings: purified Pol kappa, fluorescent DNA synthesis assay, 10 min; series mostly up to 107 µM
Procedure, shortened: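 Pol kappa 10 nM + cpd, 15 min RT; start w/ substrate 50 nM final; fluorescence kinetic read, 0 and 10 min. Neg ctrl: buffer, no enzyme.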
Potency is the fitted concentration of half-maximal effect; tags give direction and shape of the fitted curve.

Sequence of UniProt Q9UBT6 (Q9UBT6 whole entry, looked up): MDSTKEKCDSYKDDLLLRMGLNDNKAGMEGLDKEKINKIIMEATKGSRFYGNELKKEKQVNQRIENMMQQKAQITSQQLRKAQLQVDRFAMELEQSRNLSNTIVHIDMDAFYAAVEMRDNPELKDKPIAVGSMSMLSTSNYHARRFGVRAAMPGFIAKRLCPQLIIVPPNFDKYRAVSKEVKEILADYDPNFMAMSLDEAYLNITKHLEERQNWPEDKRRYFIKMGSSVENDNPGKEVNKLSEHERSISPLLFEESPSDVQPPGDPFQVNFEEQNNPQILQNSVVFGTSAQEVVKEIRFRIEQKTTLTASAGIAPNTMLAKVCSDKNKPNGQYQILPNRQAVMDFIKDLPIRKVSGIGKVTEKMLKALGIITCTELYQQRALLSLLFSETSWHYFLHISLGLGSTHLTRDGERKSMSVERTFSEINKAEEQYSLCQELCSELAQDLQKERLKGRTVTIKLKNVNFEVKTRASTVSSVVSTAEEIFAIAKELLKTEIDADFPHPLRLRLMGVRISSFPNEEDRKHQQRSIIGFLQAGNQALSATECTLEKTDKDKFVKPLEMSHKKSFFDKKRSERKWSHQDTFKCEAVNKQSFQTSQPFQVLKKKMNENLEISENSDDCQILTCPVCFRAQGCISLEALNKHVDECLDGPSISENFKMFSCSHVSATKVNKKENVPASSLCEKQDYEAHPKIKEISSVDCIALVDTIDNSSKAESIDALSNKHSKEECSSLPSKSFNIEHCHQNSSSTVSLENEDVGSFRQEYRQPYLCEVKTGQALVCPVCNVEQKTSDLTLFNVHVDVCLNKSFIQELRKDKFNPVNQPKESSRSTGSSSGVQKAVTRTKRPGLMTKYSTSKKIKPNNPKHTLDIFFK

Compound | Potency
Cc1ccc(N=Cc2ccc(O)cc2O)cc1F | inconclusive: 89.1 µM [inhibitor, single point]
N=c1ccn(Cc2c(Cl)cccc2Cl)cc1 | inconclusive: 89.1 µM [inhibitor, partial curve, poor fit]
COc1ccccc1N1CC(C(=O)Nc2ccc(S(=O)(=O)N3CCCC3)cc2)CC1=O (centres undefined) | inactive
N#CC1C(=O)c2ccccc2C1c1ccccc1 (centres undefined) | inactive
Cc1cccc[n+]1C1C(c2ccccc2)C(C#N)=C(C(=C=[N-])C#N)NC1(O)C1CC1 (centres undefined) | inconclusive: 89.1 µM [inhibitor, partial curve, poor fit]
C/C=C/C=C\C(=O)Nc1cccc(C2=NOC3(C2)C[C@@H](C(N)=O)N(C(=O)/C(C)=C/C)C3)c1 (some centres undefined) | active: 50.1 µM
NC(=O)c1cc[n+](CC2=C(C(=O)O)N3C(=O)[C@@H](NC(=O)[C@H](c4ccccc4)S(=O)(=O)[O-])[C@@H]3SC2)cc1 | active: 4.23 µM
CCc1cnc2c(c1SCC(=O)Nc1ccc(C(=O)OC)cc1)c(=O)n(C)c(=O)n2C | inactive
C=CCn1c(COc2cccc(C)c2)nnc1SCC(=O)NC(=O)NCc1ccco1 | inconclusive: 89.1 µM [inhibitor, single point]
O=C(/C=C/c1ccc(O)c(O)c1)OC1C(O)CC(OC(=O)/C=C/c2ccc(O)c(O)c2)(C(=O)O)CC1O (centres undefined) | inconclusive: 12.6 µM [inhibitor, single point]
COc1cc(/C=N/NC(=O)c2cccnc2)ccc1OCC(=O)Nc1ccc(C)cc1 | inconclusive: 79.4 µM [inhibitor, partial curve, poor fit]
Nc1c(N=Nc2ccc(-c3ccc(N=Nc4cc(S(=O)(=O)O)c5ccccc5c4N)cc3)cc2)cc(S(=O)(=O)O)c2ccccc12 | active: 3.16 µM and active: 1.12 µM
Cc1ccc(OCC(=O)N(C)CC(=O)NCc2ccco2)c(Br)c1 | active: 79.4 µM
CC(C)C[C@H]1CNC(=S)N1CC1CCN(CCCC2CCCC2)CC1 | inconclusive: 89.1 µM [inhibitor, single point]
CCc1cccc(C)c1NC(=O)c1cnn(-c2ccc(OC)cc2)c1C1CCN(C(=O)OC(C)(C)C)CC1 | inactive
Nc1nc(Sc2ccc([N+](=O)[O-])c3nonc23)c2[nH]cnc2n1 | active: 17.8 µM
C/C(=N\NC(=O)c1cccc(S(=O)(=O)Nc2ccccc2Cl)c1)c1ccc(-n2ccnc2)cc1 | inconclusive: 89.1 µM [inhibitor, single point]
CN(Cc1ccco1)S(=O)(=O)c1nnc(NC(=O)c2ccccc2Cl)s1 | inconclusive: 79.4 µM [inhibitor, single point]
NS(=O)(=O)c1ccc(CCNC(=O)C(=O)c2cn(CC(=O)N3CCCC3)c3ccccc23)cc1 | inactive
COc1ccc(-n2c(=O)c3c4c(sc3n(Cc3ccc(C(C)(C)C)cc3)c2=O)CCC4)c(OC)c1 | inactive

Compound | Potency
Cc1ccc(Cl)cc1N1CCN(C(=O)c2ccc3c(c2)N(Cc2ccccc2)CCS3)CC1 | inactive
COC1=C(N)C(=O)c2nc(-c3nc(C(=O)O)c(C)c(-c4ccc(OC)c(OC)c4O)c3N)ccc2C1=O | active: 50.1 µM
COc1ccc(/C=N/NC(=O)c2ccc3nc[nH]c3c2)cc1OC | inconclusive: 79.4 µM [inhibitor, partial curve, poor fit]
CCSc1ccc2nnc(-c3cccs3)n2n1 | inactive
CC(NC(=O)c1ccc(F)cc1F)C1CC2CCC1C2 (centres undefined) | inconclusive: 89.1 µM [inhibitor, single point]
O=C(CC1Sc2ccccc2NC1=O)OCc1cc(=O)oc2cc(O)ccc12 (centres undefined) | inconclusive: 79.4 µM [inhibitor, single point]
COc1ccccc1NC(=O)CNc1ccc(F)c(Cl)c1 | inactive
C=CCN1C(=O)/C(=N/n2cnnc2)c2ccccc21 | inactive
CCOc1cc(C2C(C#N)=C(N)Oc3n[nH]c(-c4ccccc4)c32)ccc1O (centres undefined) | inactive
O=C(Nc1cc(C(=O)Nc2ccc(S(=O)(=O)O)cc2S(=O)(=O)O)cc(C(=O)Nc2ccc(S(=O)(=O)O)cc2S(=O)(=O)O)c1)Nc1cc(C(=O)Nc2ccc(S(=O)(=O)O)cc2S(=O)(=O)O)cc(C(=O)Nc2ccc(S(=O)(=O)O)cc2S(=O)(=O)O)c1 | active: 0.178 µM
Oc1ccc(/C=N/Nc2ncnc3c2ncn3Cc2ccccc2)cc1O | inconclusive: 15.8 µM [inhibitor, full curve, poor fit]
Cc1nc2ccccc2nc1OCC(=O)NCc1ccc2c(c1)OCO2 | inconclusive: 89.1 µM [inhibitor, partial curve, poor fit]
COc1ccc(CCC(C(O)C(F)(F)F)S(=O)c2ccccc2)cc1 (centres undefined) | inconclusive: 39.8 µM [inhibitor, single point]
CC[C@H](C)[C@H]1O[C@]2(CC[C@@H]1C)C[C@@H]1C[C@@H](C/C=C(\C)[C@H](O[C@@H]3C[C@H](OC)[C@H](O[C@@H]4C[C@H](OC)[C@@H](O)[C@H](C)O4)[C@H](C)O3)[C@@H](C)/C=C/C=C3\CO[C@@H]4[C@H](O)C(C)=C[C@@H](C(=O)O1)[C@]34O)O2 | inconclusive: 9.47 µM [inhibitor, partial curve, poor fit]
NCCNS(=O)(=O)c1cccc2cnccc12 | inconclusive: 0.708 µM [inhibitor, full curve, poor fit]
C#Cc1ccc([C@H]2C=C(C(=O)O)O[C@@H](OCc3ccc(CO)cc3)C2)cc1 | inconclusive: 79.4 µM [inhibitor, single point]
S=C(NCc1ccco1)NCc1ccco1 | inconclusive: 79.4 µM [inhibitor, partial curve, poor fit]
Cn1c(C(=O)NCC2CCCO2)cc2c(=O)[nH]c3ccccc3c21 (centres undefined) | inconclusive: 100 µM [inhibitor, single point]
CC(/C=C1\SC(=S)N(C(C(=O)O)c2ccccc2)C1=O)=C\c1ccccc1 (centres undefined) | inconclusive: 100 µM [inhibitor, partial curve, poor fit]
